Measurements as given in paper PMC9911399, “Two distinct binding modes provide the RNA-binding protein RbFox with extraordinary sequence specificity”.
Residue numbers refer to the chain shown, from its start. The list shows a part of the results.

T1: RBFOX1 RRM (Homo sapiens, UniProt Q9NWB1 109-208)
T1 sequence: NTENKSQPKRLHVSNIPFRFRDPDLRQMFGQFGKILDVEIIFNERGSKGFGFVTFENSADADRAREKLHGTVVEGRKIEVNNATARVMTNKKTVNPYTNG

B1: AAAAGGC (DNA:RNA)
RNA: GGGAGACCGGAAUUCAGAUUGUCCAAAAGGCUUAAAUCCCGUCGUAGCCACCA
DNA 1: CAATCTGAATTCCGGTCTCCC
DNA 2: TGGTGGCTACGACGGGATT
B2: GAGAAUC (DNA:RNA)
RNA: B1 RNA with A25G, A27G, G29A, G30U
DNA 1: CAATCTGAATTCCGGTCTCCC
DNA 2: TGGTGGCTACGACGGGATT
B3: UGGUACC (DNA:RNA)
RNA: B1 RNA with A25U, A26G, A27G, A28U, G29A, G30C
DNA 1: CAATCTGAATTCCGGTCTCCC
DNA 2: TGGTGGCTACGACGGGATT
B4: GUGGAAU (DNA:RNA)
RNA: GGGAGACCGGAAUUCAGAUUGUCCGUGGAAUUUAAAUCCCGUCGUAGCCACCA
DNA 1: CAATCTGAATTCCGGTCTCCC
DNA 2: TGGTGGCTACGACGGGATT
B5: AAAGUUU (DNA:RNA)
RNA: B1 RNA with A28G, G29U, G30U, C31U
DNA 1: CAATCTGAATTCCGGTCTCCC
DNA 2: TGGTGGCTACGACGGGATT
B6: AUGCACC (DNA:RNA)
RNA: B4 RNA with G25A, G28C, A30C, U31C
DNA 1: CAATCTGAATTCCGGTCTCCC
DNA 2: TGGTGGCTACGACGGGATT
B7: CCUCAGC (DNA:RNA)
RNA: B1 RNA with A25C, A26C, A27U, A28C, G29A
DNA 1: CAATCTGAATTCCGGTCTCCC
DNA 2: TGGTGGCTACGACGGGATT
B8: UGACUUU (DNA:RNA)
RNA: B1 RNA with A25U, A26G, A28C, G29U, G30U, C31U
DNA 1: CAATCTGAATTCCGGTCTCCC
DNA 2: TGGTGGCTACGACGGGATT
B9: CUUCCCA (DNA:RNA)
RNA: B4 RNA with G25C, G27U, G28C, A29C, A30C, U31A
DNA 1: CAATCTGAATTCCGGTCTCCC
DNA 2: TGGTGGCTACGACGGGATT
B10: CUAAUUA (DNA:RNA)
RNA: B1 RNA with A25C, A26U, G29U, G30U, C31A
DNA 1: CAATCTGAATTCCGGTCTCCC
DNA 2: TGGTGGCTACGACGGGATT
B11: CAAGUCC (DNA:RNA)
RNA: B1 RNA with A25C, A28G, G29U, G30C
DNA 1: CAATCTGAATTCCGGTCTCCC
DNA 2: TGGTGGCTACGACGGGATT
B12: CCUUACU (DNA:RNA)
RNA: B4 RNA with G25C, U26C, G27U, G28U, A30C
DNA 1: CAATCTGAATTCCGGTCTCCC
DNA 2: TGGTGGCTACGACGGGATT
B13: CACGCAA (DNA:RNA)
RNA: B4 RNA with G25C, U26A, G27C, A29C, U31A
DNA 1: CAATCTGAATTCCGGTCTCCC
DNA 2: TGGTGGCTACGACGGGATT
B14: UUAGCUC (DNA:RNA)
RNA: B1 RNA with A25U, A26U, A28G, G29C, G30U
DNA 1: CAATCTGAATTCCGGTCTCCC
DNA 2: TGGTGGCTACGACGGGATT
B15: GGCCUGG (DNA:RNA)
RNA: B1 RNA with A25G, A26G, A27C, A28C, G29U, C31G
DNA 1: CAATCTGAATTCCGGTCTCCC
DNA 2: TGGTGGCTACGACGGGATT
B16: UGGACAC (DNA:RNA)
RNA: B1 RNA with A25U, A26G, A27G, G29C, G30A
DNA 1: CAATCTGAATTCCGGTCTCCC
DNA 2: TGGTGGCTACGACGGGATT
B17: UGUCCCC (DNA:RNA)
RNA: B1 RNA with A25U, A26G, A27U, A28C, G29C, G30C
DNA 1: CAATCTGAATTCCGGTCTCCC
DNA 2: TGGTGGCTACGACGGGATT
B18: GGCGAAA (DNA:RNA)
RNA: B4 RNA with U26G, G27C, U31A
DNA 1: CAATCTGAATTCCGGTCTCCC
DNA 2: TGGTGGCTACGACGGGATT
B19: AAGUUUA (DNA:RNA)
RNA: B1 RNA with A27G, A28U, G29U, G30U, C31A
DNA 1: CAATCTGAATTCCGGTCTCCC
DNA 2: TGGTGGCTACGACGGGATT
B20: UAACACU (DNA:RNA)
RNA: B1 RNA with A25U, A28C, G29A, G30C, C31U
DNA 1: CAATCTGAATTCCGGTCTCCC
DNA 2: TGGTGGCTACGACGGGATT
B21: GUGUCUG (DNA:RNA)
RNA: B4 RNA with G28U, A29C, A30U, U31G
DNA 1: CAATCTGAATTCCGGTCTCCC
DNA 2: TGGTGGCTACGACGGGATT
B22: CCCUCAG (DNA:RNA)
RNA: B4 RNA with G25C, U26C, G27C, G28U, A29C, U31G
DNA 1: CAATCTGAATTCCGGTCTCCC
DNA 2: TGGTGGCTACGACGGGATT
B23: GGUUCAU (DNA:RNA)
RNA: B4 RNA with U26G, G27U, G28U, A29C
DNA 1: CAATCTGAATTCCGGTCTCCC
DNA 2: TGGTGGCTACGACGGGATT
B24: GACUUCG (DNA:RNA)
RNA: B1 RNA with A25G, A27C, A28U, G29U, G30C, C31G
DNA 1: CAATCTGAATTCCGGTCTCCC
DNA 2: TGGTGGCTACGACGGGATT
B25: AAUCAAU (DNA:RNA)
RNA: B4 RNA with G25A, U26A, G27U, G28C
DNA 1: CAATCTGAATTCCGGTCTCCC
DNA 2: TGGTGGCTACGACGGGATT
B26: GUGUGGU (DNA:RNA)
RNA: B4 RNA with G28U, A29G, A30G
DNA 1: CAATCTGAATTCCGGTCTCCC
DNA 2: TGGTGGCTACGACGGGATT
B27: ACAGUCG (DNA:RNA)
RNA: B1 RNA with A26C, A28G, G29U, G30C, C31G
DNA 1: CAATCTGAATTCCGGTCTCCC
DNA 2: TGGTGGCTACGACGGGATT
B28: CAAAUAG (DNA:RNA)
RNA: B1 RNA with A25C, G29U, G30A, C31G
DNA 1: CAATCTGAATTCCGGTCTCCC
DNA 2: TGGTGGCTACGACGGGATT
B29: CGAUCAG (DNA:RNA)
RNA: B1 RNA with A25C, A26G, A28U, G29C, G30A, C31G
DNA 1: CAATCTGAATTCCGGTCTCCC
DNA 2: TGGTGGCTACGACGGGATT
B30: AAAAUCA (DNA:RNA)
RNA: B1 RNA with G29U, G30C, C31A
DNA 1: CAATCTGAATTCCGGTCTCCC
DNA 2: TGGTGGCTACGACGGGATT
B31: UCGCAUA (DNA:RNA)
RNA: B4 RNA with G25U, U26C, G28C, A30U, U31A
DNA 1: CAATCTGAATTCCGGTCTCCC
DNA 2: TGGTGGCTACGACGGGATT

The binders below were run against T1, RBFOX1 RRM (assay: EMSA; HiTS-Eq, 1 nM pool, 10 min; buffer printed only for the single-RNA assays: 10 mM Tris pH 7.5, 150 mM NaCl, 3.4 mM EDTA, 0.001% NP-40, 30 C). Details: tags: His6 N-terminal (pET28a); label: 5' 32P.
In short: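 These values rest on relative association constants, computed from read-count changes of each RNA species versus the control reaction and normalised to the cognate motif. Reads came from free RNA recovered by 8% native PAGE after purified RbFox RRM (wild type or mutant) at increasing concentrations was equilibrated for 10 min in 50 µL with 1 nM of a 5′-radiolabelled pool with 7 randomized nucleotides and DNA-annealed flanks.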

Binder	binding signal
B1	0.00573 KA relative to UGCAUGU
B2	0.0151 KA relative to UGCAUGU
B3	0.0181 KA relative to UGCAUGU
B4	0.0161 KA relative to UGCAUGU
B5	0.00559 KA relative to UGCAUGU
B6	0.0115 KA relative to UGCAUGU
B7	0.00826 KA relative to UGCAUGU
B8	0.0147 KA relative to UGCAUGU
B9	0.00369 KA relative to UGCAUGU
B10	0.00185 KA relative to UGCAUGU
B11	0.00343 KA relative to UGCAUGU
B12	0.00331 KA relative to UGCAUGU
B13	0.00431 KA relative to UGCAUGU
B14	0.00702 KA relative to UGCAUGU
B15	0.0202 KA relative to UGCAUGU
B16	0.0159 KA relative to UGCAUGU

Binder	binding signal
B17	0.00602 KA relative to UGCAUGU
B18	0.00956 KA relative to UGCAUGU
B19	0.00156 KA relative to UGCAUGU
B20	0.0028 KA relative to UGCAUGU
B21	0.0236 KA relative to UGCAUGU
B22	0.00616 KA relative to UGCAUGU
B23	0.00857 KA relative to UGCAUGU
B24	0.0143 KA relative to UGCAUGU
B25	0.000959 KA relative to UGCAUGU
B26	0.019 KA relative to UGCAUGU
B27	0.00735 KA relative to UGCAUGU
B28	0.00168 KA relative to UGCAUGU
B29	0.012 KA relative to UGCAUGU
B30	0.000438 KA relative to UGCAUGU
B31	0.00838 KA relative to UGCAUGU
